Among all 310,000 compounds or so, about 14,000 (4.5%) showed an effect of 50% or more. Effects have a minus sign here. This is one part of the list.
target: human ether-à-go-go-related gene (hERG) potassium channel (human, UniProt Q12809); experiment: primary screen, population patch clamp on CHO cells stably expressing hERG
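Further: peak tail current of the secondary pulse compared with the same well before compound.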

Chain of human ether-à-go-go-related gene (hERG) potassium channel (Q12809 whole entry, looked up): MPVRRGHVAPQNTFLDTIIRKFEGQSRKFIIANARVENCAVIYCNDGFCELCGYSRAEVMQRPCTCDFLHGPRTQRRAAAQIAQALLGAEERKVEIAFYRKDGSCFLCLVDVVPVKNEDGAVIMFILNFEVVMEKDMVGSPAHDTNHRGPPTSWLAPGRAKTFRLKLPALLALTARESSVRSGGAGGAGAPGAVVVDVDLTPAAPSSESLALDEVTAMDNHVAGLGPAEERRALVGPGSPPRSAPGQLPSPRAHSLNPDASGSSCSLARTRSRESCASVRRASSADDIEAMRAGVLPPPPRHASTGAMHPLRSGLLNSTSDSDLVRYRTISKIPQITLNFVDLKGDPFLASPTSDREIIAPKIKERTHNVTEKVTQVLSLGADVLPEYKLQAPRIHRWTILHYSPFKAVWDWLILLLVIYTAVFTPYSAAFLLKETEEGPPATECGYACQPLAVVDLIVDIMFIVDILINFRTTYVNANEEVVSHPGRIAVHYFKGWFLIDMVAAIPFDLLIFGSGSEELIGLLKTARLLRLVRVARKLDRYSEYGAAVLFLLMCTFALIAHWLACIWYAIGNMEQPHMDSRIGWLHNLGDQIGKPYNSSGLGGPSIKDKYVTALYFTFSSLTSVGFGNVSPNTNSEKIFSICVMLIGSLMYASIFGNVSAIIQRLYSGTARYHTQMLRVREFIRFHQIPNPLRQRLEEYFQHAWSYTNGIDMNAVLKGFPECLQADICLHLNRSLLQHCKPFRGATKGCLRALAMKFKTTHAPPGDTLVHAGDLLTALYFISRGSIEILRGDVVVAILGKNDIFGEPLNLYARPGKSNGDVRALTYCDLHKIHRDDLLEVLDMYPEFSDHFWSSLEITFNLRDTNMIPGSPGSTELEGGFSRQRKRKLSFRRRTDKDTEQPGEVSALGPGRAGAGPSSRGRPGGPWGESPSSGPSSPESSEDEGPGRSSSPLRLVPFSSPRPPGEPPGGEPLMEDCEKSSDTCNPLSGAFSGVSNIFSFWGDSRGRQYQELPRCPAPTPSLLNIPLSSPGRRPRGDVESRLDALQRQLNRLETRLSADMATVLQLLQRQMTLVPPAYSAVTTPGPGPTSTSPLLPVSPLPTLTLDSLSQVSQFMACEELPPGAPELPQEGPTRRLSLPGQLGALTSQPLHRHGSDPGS

Compound	hERG current change (%, negative = inhibition) at 10uM [%]
O=C(CSc1nnc(-c2ccccc2Br)o1)Nc1nncs1	-57.9
COc1ccc(-c2nnc(NC(=O)C3CCCO3)s2)cc1 (centres unmarked)	-8.97
COc1ccc(C(=O)Nc2ccc(Cl)cc2C(=O)NCc2ccco2)cc1	-0.702
CCN(CC)CCNC(=O)c1ccc(Sc2ccc(C)cc2)c(NC(C)=O)c1	-58.2
CCNc1nc(C#N)nc2c1ncn2-c1cc(F)cc(F)c1	6.83
CCC(C)OC(=O)c1cc(C)nc2c(Br)cc(Br)cc12 (centres unmarked)	12.7
Cc1n[nH]c(C)c1S(=O)(=O)Nc1ccc2c(c1)OCCO2	-0.14
CCOC(=O)COc1cc(O)c2c(=O)cc(-c3ccccc3)oc2c1	12
COC(=O)[C@]1(Cc2ccccc2)N[C@H](c2ccc(-c3cccc(Cl)c3)cc2)[C@@H]2C(=O)N(C)C(=O)[C@@H]21.O=C(O)C(F)(F)F	-7.57
COc1ccc(-n2cnc3cc(C(=O)NCC4CCCO4)ccc32)cc1 (centres unmarked)	-17.9
O=C(NN1C(=O)c2ccccc2C1=O)c1ccc2c(c1)C(=O)N(CC1CCCO1)C2=O (centres unmarked)	-2.01
Cc1cc(C)c2c(CC(=O)NN(C)C)coc2c1	13.6
CCOc1cc(/C=N/NC(=O)c2ccc(CSc3nncn3C)cc2)ccc1OCC(=O)N1CCOCC1	-9.6
COc1ccc(OCCOC(=O)c2cc(S(=O)(=O)N3CCOCC3)c(Cl)cc2Cl)cc1	-17.7
CCOC(=O)C1CCN(C2CC(=O)N(c3cccc(Cl)c3)C2=O)CC1 (centres unmarked)	-12
N#CC1=C2SC=C(c3ccc(Br)cc3)N2CCCC1=O	16.1
CC1CCN(c2ccc(/C=C(\C#N)c3nn(-c4ccccc4)c(N)c3C#N)cc2[N+](=O)[O-])CC1	12.8
COc1ccc(CNC(=O)COC(=O)C2CC2C)cc1OC (centres unmarked)	4.24
Cc1ccc(S(=O)(=O)N(C)c2ccc(OCC(=O)OCc3c(C)noc3C)cc2)cc1	0.368
CC(C)N(Cc1ccccc1)C(=O)CN1C(=O)COc2ccc(S(=O)(=O)NC3CCCC3)cc21	-36.1
Cn1cc([N+](=O)[O-])c(C(=O)Nc2ccc(C(=O)N3CCCCC3)cc2)n1	23.3
CCOc1ccc(NC(=O)CSc2nc(=O)n(Cc3ccccn3)c3c2CCC3)cc1	-21.2
Cc1cccc(/C(N)=N/OC(=O)CCC2CCCCC2)c1	5.36
CCOC(=O)c1c(NC(=O)COC(=O)c2ccc([N+](=O)[O-])cc2)sc(C(=O)N(C)C)c1C	-8.65
COc1ccccc1CC(NC(C)=O)C(=O)NC1CCN(C(=O)Nc2ccccc2Cl)CC1 (centres unmarked)	-14.7
N=C1C(=O)OCC1c1ccccc1NC(=O)c1ccccc1 (centres unmarked)	8.05
O=C(CSc1ccc([N+](=O)[O-])cc1)OCC(=O)N1CCCC1=O	-11.7

Compound	hERG current change (%, negative = inhibition) at 10uM [%]
C=CCc1c(C)nc(SC)nc1Nc1ccccc1	-20.4
COc1ccccc1NC(=O)Cn1cc(C(=O)c2ccco2)c2ccccc21	-35.8
CCOC(=O)CC1C(=O)NCCN1S(=O)(=O)c1cccc(C(F)(F)F)c1 (centres unmarked)	8.42
Cc1ccc(C(=O)CSc2nnc(COc3cc(C)cc(C)c3)o2)cc1	12.2
O=C(c1cc(COc2c(F)cccc2F)on1)N(Cc1ccccc1)CC1CC1	3.51
N#Cc1c([N+](=O)[O-])cc([N+](=O)[O-])cc1S(=O)(=O)Cc1ccccc1	17.2
COCCN(C(=O)COC(=O)c1ccccc1NCc1ccco1)c1c(N)n(Cc2ccccc2)c(=O)[nH]c1=O	0.733
Cc1ccc(NS(=O)(=O)c2ccc(NC(=O)N3CCCCC3)cc2)cc1	8.78
COc1ccc(Cn2nnnc2C(c2ccc(F)cc2)N2CCN(C3CCCC3)CC2)cc1 (centres unmarked)	-52.6
Cc1ccc(NC(=S)N/N=C2\CC(C)(C)Oc3ccc(O)cc32)cc1	12
O=C(C=C=Nc1ccccc1)C(=O)N=C=Cc1ccccc1	3.6
Cl.O=C(CN1CCOCC1)NCc1ccc(F)cc1	21.6
CC(C)(C)c1ccc(/C=C(\C#N)C(=O)Nc2ccccn2)cc1	23.7
CCCCN(C(=O)c1ccc(C)o1)c1c(N)n(CC(C)C)c(=O)[nH]c1=O	13.9
O=C(COc1ccccc1Cl)N1CCN(c2ncccn2)CC1	-1.56
O=C(C1CCCN1S(=O)(=O)c1ccc(Br)cc1)N1CCOCC1 (centres unmarked)	-5.29
O=C(CSc1nnc(CNc2ccc(F)cc2)n1-c1ccccc1)N1CCOCC1	-11.4
CCOC(=O)c1cnc(SCCc2ccccc2)nc1N	4.94
CC(C)[C@H](NC(=O)c1ccc(Cl)c([N+](=O)[O-])c1)C(=O)NCc1ccc(F)cc1	3.98
Cc1ccc(CSCC(=O)N(C)CC(=O)Nc2cccc(F)c2)cc1	-17.5
CCOc1ccc(NC(=O)CN(C)C(=O)c2cc(-c3cccs3)nn2-c2ccccc2)cc1OCC	-37.8
Cc1occc1-c1nnc(SCC(=O)Nc2ccc3c(c2)OCO3)n1CC1CCCO1 (centres unmarked)	-2.13
Cc1[nH]c(C)c(S(=O)(=O)NCc2ccc(N(C)C)cc2)c1C(=O)N1CCCC1	10.8
CCN(CC)S(=O)(=O)c1cccc(-c2nnc(SCC(=O)NC)n2N)c1	8.5
CC(/C=C/c1ccco1)=N\NC(=O)c1cccc(Cl)c1	-8.98
c1ccc(-c2nccc3ccccc23)cc1	-14.5
